The source of these data is article PMC6451091.

The list shows a part of the results. Measured with an extract: partners may take part in the binding.

For the experiment, the target named is T1, FLI1 (endogenous, THP-1 nuclear extract) (UniProt Q01543).
T1 sequence: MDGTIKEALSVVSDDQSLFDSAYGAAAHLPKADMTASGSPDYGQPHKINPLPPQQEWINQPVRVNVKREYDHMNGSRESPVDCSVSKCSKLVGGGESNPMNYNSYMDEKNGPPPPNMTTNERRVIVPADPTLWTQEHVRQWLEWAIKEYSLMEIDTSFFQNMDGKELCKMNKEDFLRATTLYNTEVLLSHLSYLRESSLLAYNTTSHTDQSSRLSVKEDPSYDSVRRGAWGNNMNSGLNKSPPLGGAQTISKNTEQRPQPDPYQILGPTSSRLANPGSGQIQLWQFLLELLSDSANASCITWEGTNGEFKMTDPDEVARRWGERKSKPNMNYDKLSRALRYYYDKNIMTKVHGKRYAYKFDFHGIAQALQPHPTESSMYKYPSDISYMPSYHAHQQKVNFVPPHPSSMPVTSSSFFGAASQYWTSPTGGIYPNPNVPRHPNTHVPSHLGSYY
The experiment in a line: nuclear extract protein-binding microarray (nextPBM). The settings on record: 20 mM HEPES pH 7.9, 100 mM NaCl, 1 mM DTT, 0.2 mg/mL BSA, 0.02% Triton X-100, 2% milk, 0.4 mg/mL salmon testes DNA; 1 h; temperature not stated; high values mean tight binding; double strand, one strand shown; sequences stand for … in GCCTAGCAC…GTGCTAGGTCTTGATTCGCTTGACGCTGCTG
Turning to CCTGAGAGGAAGTGATGTTC, the binding signal was 3.03 z-score.

Turning to CAAATGAGGAACAGATGCGG, the binding signal is 0.483 z-score.

CGAAAGGGGAAGTGCTATAC displayed a binding signal of 3.3 z-score.

Turning to AGAAAGGGGAAGTGGGGACA, the binding signal came to 2.77 z-score.

GCTAAGAGGAAGTGCTATCT gave a binding signal of 3.26 z-score.

In the case of AAAAAGAGGAAATGGAGAAT, the binding signal stood at 2.94 z-score.

Sequence ATAGGGAGGAAGTGAAGATC came in with a binding signal of 2.61 z-score.

The sequence GGAAAGAGGAACTGAATCAG came in with a binding signal of 2.9 z-score.

AGGGAGAGGAAGTGTGTCTG registered a binding signal of 2.54 z-score.

In turn, GAAATGAGGAAGTCTAACCT came in with a binding signal of 3.28 z-score.

As to GAAAAGAGGAACTCAAATTG, the binding signal was 2.77 z-score.

Sequence GATATGAGGAAGTCCTCTGT came in with a binding signal of 2.75 z-score.

AGAGGGAGGAAGTGACAGTA showed a binding signal of 2.71 z-score.

AAAGGGGGGAAGTGGTTACA had a binding signal of 1.9 z-score.

On to CAAAGGGGGAAGTGCCACAC, for which the binding signal is 2.03 z-score.

In turn, GATAAGAGGAAATCCTCTGT came in with a binding signal of 1.78 z-score.

As to GAAAACAGGAAGTCCCATAG, the binding signal was 4.63 z-score.

Take AAAAAGAGGAAGAGGAATAG: the binding signal was determined as 2.45 z-score.

ACAAAAAGGAACTGTTCCCC registered a binding signal of 1.14 z-score.

AAAACAAGGAACTGGCTAGA came in with a binding signal of 0.659 z-score.

TGAAAGGGGAAGTGCCACTT: the binding signal worked out at 3.29 z-score.

Take AAGGTGAGGAACTACTGTGT: the binding signal worked out at 0.399 z-score.

Sequence ACAAAAAGCAACTGTGCCCC displayed a binding signal of -1.01 z-score.

For the sequence GAGATGAGGAAGTGCTACTA, the binding signal is 2.39 z-score.

As to TTTTTGAGGAACTGCCAAGC, the binding signal is 1.02 z-score.

The sequence GAAGGGAGGAAGTGGGGGAG yielded a binding signal of 2.51 z-score.

With AAAAAAAGGAAGTGAGATAA, the binding signal is 3.34 z-score.

Sequence GAACAAAGGAAGTGTTTCTT showed a binding signal of 2.33 z-score.

The sequence CAAAGAGGGAAGTGACAGTA gave a binding signal of 2.13 z-score.

AGGAGAGGGAAGTGAGAGAT came in with a binding signal of 1.51 z-score.

The sequence GGAAACAGGAAGTGATTGCT registered a binding signal of 5.6 z-score.

TAAAGGAGGAAGTAAGGGAG yielded a binding signal of 2.86 z-score.

In turn, CAACTGAGGAAGTGATCTCA had a binding signal of 1.96 z-score.

The sequence TTTTTAGAGAAGTACTGTGA returned a binding signal of -0.0214 z-score.

For AGAAAGAGGAACTGGTTCCT, the binding signal was determined as 3.04 z-score.

In turn, TAAGAGGGGAAGTGGCCACA returned a binding signal of 2.02 z-score.

Consider CGGAAGGGGAAGTGCTAAAC, for which the binding signal came out at 5.08 z-score.

Sequence CCCATAGGGAAGTGCACTGA had a binding signal of 1.18 z-score.

In turn, CAATTGAGGAACTGTAGATG yielded a binding signal of 1.29 z-score.

As to GAAATGAGGAACTGGATCTT, the binding signal is 2.58 z-score.
